Values marked as one replicate rest on one cluster of the flow cell; about a third of the high ones do not repeat.
test system: ATP; experiment: switch fluorescence ratio, 500 uM ATP over buffer (Cy3 cluster intensity, sum of 5 cycles each) (fold (ratio)); higher = stronger signal-on switching upon ATP binding; sequences stand for … in TCGTCGGCAGCGTCAGATGTGTATAAGAGACAGTTTTTTTTTTTTTTTTTTTTTTTTT…TC; settings: aptamer strand: ATP DNA aptamer (quencher-CACCTGGGGGAGTATTGCGGAGGAAGG + anchor), 100 nM annealed; ATP concentration: 500 uM; one replicate
Summary of the method: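 The quencher-labelled ATP aptamer, at 100 nM, was annealed to Cy3-labelled switching-strand clusters on a modified Illumina MiSeq flow-cell. The clusters were imaged in selection buffer, then after 15 min with 500 uM ATP at 22 °C, and this buffer/ATP cycle ran five times with NaOH stripping and re-annealing between runs. Per-cluster fluorescence ratios, summed target-cycle over summed buffer-cycle Cy3 intensity, were averaged per switch-domain sequence. Clusters outside 100-1000 RFU were excluded.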
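Also: ATP exposure 15 min at 22 °C before imaging.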

Q: How did the switch fluorescence ratio turn out when GGAGCTCTGG was run?
A: 1.01

Q: For GGAGGCCGCA, which switch fluorescence ratio is on record?
A: 1.04

Q: How did the switch fluorescence ratio turn out when GGAGGCGTAA was run?
A: 0.992

Q: For GGAGGGGTAA, which switch fluorescence ratio is on record?
A: 1.02

Q: With GGAGGGTAGT as the sequence, how does the switch fluorescence ratio read?
A: 0.993

Q: Which switch fluorescence ratio does the source give for GGAGTACAAC here?
A: 1.02

Q: With GGAGTCTACT as the sequence, how does the switch fluorescence ratio read?
A: 1.01

Q: With GGAGTTAAAC as the sequence, how does the switch fluorescence ratio read?
A: 0.995

Q: GGAGTTTTCT was tested. Which switch fluorescence ratio did it give?
A: 0.965

Q: How did the switch fluorescence ratio turn out when GGATAAAGTG was run?
A: 1.02

Q: How did the switch fluorescence ratio turn out when GGATAACGAA was run?
A: 1.05

Q: With GGATAAGCCC as the sequence, how does the switch fluorescence ratio read?
A: 0.984

Q: With GGATAATCGG as the sequence, how does the switch fluorescence ratio read?
A: 0.966

Q: For GGATACACGT, which switch fluorescence ratio is on record?
A: 1.03

Q: For GGATAGACAG, which switch fluorescence ratio is on record?
A: 0.992

Q: With GGATATACAA as the sequence, how does the switch fluorescence ratio read?
A: 1

Q: Which switch fluorescence ratio does the source give for GGATATCTAG here?
A: 1.01

Q: GGATATGGGA was tested. Which switch fluorescence ratio did it give?
A: 0.985

Q: For GGATCAAATC, which switch fluorescence ratio is on record?
A: 1.02

Q: How did the switch fluorescence ratio turn out when GGATCATTCT was run?
A: 0.989

Q: Which switch fluorescence ratio does the source give for GGATCCAGAA here?
A: 0.943

Q: With GGATCGGGA as the sequence, how does the switch fluorescence ratio read?
A: 1.03

Q: With GGATGCCTCA as the sequence, how does the switch fluorescence ratio read?
A: 0.974

Q: GGATGGACGG was tested. Which switch fluorescence ratio did it give?
A: 1

Q: How did the switch fluorescence ratio turn out when GGATGGAGTA was run?
A: 0.969

Q: For GGATGGATTC, which switch fluorescence ratio is on record?
A: 1.1

Q: For GGATGTACGT, which switch fluorescence ratio is on record?
A: 0.999

Q: Which switch fluorescence ratio does the source give for GGATTAATTA here?
A: 1

Q: Which switch fluorescence ratio does the source give for GGATTAGTAC here?
A: 1

Q: With GGATTCACGT as the sequence, how does the switch fluorescence ratio read?
A: 0.995

Q: GGATTCTATG was tested. Which switch fluorescence ratio did it give?
A: 0.975

Q: For GGATTGACAT, which switch fluorescence ratio is on record?
A: 1.03

Q: For GGATTGGAAG, which switch fluorescence ratio is on record?
A: 0.96

Q: With GGATTGGGGC as the sequence, how does the switch fluorescence ratio read?
A: 0.994

Q: How did the switch fluorescence ratio turn out when GGATTGTCAT was run?
A: 1.01

Q: GGATTTAGGA was tested. Which switch fluorescence ratio did it give?
A: 0.956

Q: For GGATTTATAT, which switch fluorescence ratio is on record?
A: 0.974

Q: How did the switch fluorescence ratio turn out when GGATTTCGGT was run?
A: 1

Q: GGATTTGTTC was tested. Which switch fluorescence ratio did it give?
A: 0.943

Q: With GGATTTTA as the sequence, how does the switch fluorescence ratio read?
A: 1.09

Q: How did the switch fluorescence ratio turn out when GGATTTTTAC was run?
A: 1.01

Q: For GGCAAAAGCT, which switch fluorescence ratio is on record?
A: 1

Q: With GGCAAAGTTG as the sequence, how does the switch fluorescence ratio read?
A: 0.978

Q: GGCAACAACT was tested. Which switch fluorescence ratio did it give?
A: 1.04

Q: How did the switch fluorescence ratio turn out when GGCAACAGGA was run?
A: 0.983

Q: With GGCAACGGGT as the sequence, how does the switch fluorescence ratio read?
A: 0.979

Q: Which switch fluorescence ratio does the source give for GGCAACGTGG here?
A: 0.967

Q: How did the switch fluorescence ratio turn out when GGCACATATG was run?
A: 0.98

Q: For GGCACCTCAA, which switch fluorescence ratio is on record?
A: 1.06

Q: GGCACCTTTC was tested. Which switch fluorescence ratio did it give?
A: 1.8

Q: For GGCACTAGGA, which switch fluorescence ratio is on record?
A: 1.08

Q: With GGCACTAGGT as the sequence, how does the switch fluorescence ratio read?
A: 1.03

Q: Which switch fluorescence ratio does the source give for GGCACTCGTT here?
A: 1.01

Q: GGCACTGCTG was tested. Which switch fluorescence ratio did it give?
A: 0.978

Q: How did the switch fluorescence ratio turn out when GGCAGAGGCC was run?
A: 1.04

Q: For GGCAGAGGTT, which switch fluorescence ratio is on record?
A: 0.958

Q: GGCAGCTAGG was tested. Which switch fluorescence ratio did it give?
A: 1.02

Q: GGCAGCTCCG was tested. Which switch fluorescence ratio did it give?
A: 1.03

Q: With GGCAGCTCTG as the sequence, how does the switch fluorescence ratio read?
A: 1.02

Q: How did the switch fluorescence ratio turn out when GGCAGTCACT was run?
A: 1.02

Q: How did the switch fluorescence ratio turn out when GGCATAAATC was run?
A: 1.04

Q: Which switch fluorescence ratio does the source give for GGCATATGTG here?
A: 1

Q: For GGCATCAAAC, which switch fluorescence ratio is on record?
A: 1.02

Q: How did the switch fluorescence ratio turn out when GGCATGGATT was run?
A: 1

Q: For GGCATGTAGT, which switch fluorescence ratio is on record?
A: 1.01

Q: For GGCATTCCGG, which switch fluorescence ratio is on record?
A: 0.993

Q: How did the switch fluorescence ratio turn out when GGCCAAGTAT was run?
A: 1.03

Q: For GGCCACAAGA, which switch fluorescence ratio is on record?
A: 1.02

Q: Which switch fluorescence ratio does the source give for GGCCACCGAC here?
A: 1.11

Q: For GGCCAGGAA, which switch fluorescence ratio is on record?
A: 1.03

Q: For GGCCATACCG, which switch fluorescence ratio is on record?
A: 1

Q: Which switch fluorescence ratio does the source give for GGCCCAGGTC here?
A: 2.14

Q: For GGCCCCCCT, which switch fluorescence ratio is on record?
A: 1.08

Q: How did the switch fluorescence ratio turn out when GGCCCCCTCT was run?
A: 0.994

Q: Which switch fluorescence ratio does the source give for GGCCCGGTAA here?
A: 1.01

Q: Which switch fluorescence ratio does the source give for GGCCCTGAAC here?
A: 1.06

Q: For GGCCGATACC, which switch fluorescence ratio is on record?
A: 1.07

Q: GGCCGCTCTA was tested. Which switch fluorescence ratio did it give?
A: 1.05

Q: With GGCCGGAACG as the sequence, how does the switch fluorescence ratio read?
A: 0.994

Q: Which switch fluorescence ratio does the source give for GGCCGGCGGT here?
A: 1.01

Q: Which switch fluorescence ratio does the source give for GGCCGGGATG here?
A: 1

Q: With GGCCGGTTTA as the sequence, how does the switch fluorescence ratio read?
A: 1.01

Q: With GGCCTATCTT as the sequence, how does the switch fluorescence ratio read?
A: 0.982

Q: How did the switch fluorescence ratio turn out when GGCCTGTATA was run?
A: 0.939

Q: GGCGAAAAGT was tested. Which switch fluorescence ratio did it give?
A: 0.964

Q: GGCGAAATCA was tested. Which switch fluorescence ratio did it give?
A: 1.21

Q: Which switch fluorescence ratio does the source give for GGCGAAGGGG here?
A: 1.1

Q: With GGCGAATTG as the sequence, how does the switch fluorescence ratio read?
A: 1

Q: For GGCGACGGCG, which switch fluorescence ratio is on record?
A: 1.01

Q: GGCGACTGCT was tested. Which switch fluorescence ratio did it give?
A: 0.958

Q: With GGCGAGAGTA as the sequence, how does the switch fluorescence ratio read?
A: 0.944

Q: Which switch fluorescence ratio does the source give for GGCGAGCACG here?
A: 0.97

Q: Which switch fluorescence ratio does the source give for GGCGAGCGGA here?
A: 0.967

Q: How did the switch fluorescence ratio turn out when GGCGAGTGAT was run?
A: 1.02

Q: How did the switch fluorescence ratio turn out when GGCGATGCAT was run?
A: 1.12

Q: For GGCGATGTAC, which switch fluorescence ratio is on record?
A: 1.15

Q: GGCGCACTGG was tested. Which switch fluorescence ratio did it give?
A: 1.1

Q: GGCGCCCGTG was tested. Which switch fluorescence ratio did it give?
A: 0.948

Q: Which switch fluorescence ratio does the source give for GGCGCCGGGT here?
A: 1.04

Q: GGCGCGAAGA was tested. Which switch fluorescence ratio did it give?
A: 1

Reference: the supplement of paper PMC10126150
